Out of some 310,000 compounds screened, about 14,000 (4.5%) showed an effect of 50% or more. Effects have a minus sign here. The list shows a part of the results.
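Also: peak tail current of the secondary pulse compared with the same well before compound.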

For the experiment, the target named is human ether-à-go-go-related gene (hERG) potassium channel (human, UniProt Q12809). The experiment in a line: primary screen, population patch clamp on CHO cells stably expressing hERG.
human ether-à-go-go-related gene (hERG) potassium channel, sequence (Q12809 whole entry, looked up): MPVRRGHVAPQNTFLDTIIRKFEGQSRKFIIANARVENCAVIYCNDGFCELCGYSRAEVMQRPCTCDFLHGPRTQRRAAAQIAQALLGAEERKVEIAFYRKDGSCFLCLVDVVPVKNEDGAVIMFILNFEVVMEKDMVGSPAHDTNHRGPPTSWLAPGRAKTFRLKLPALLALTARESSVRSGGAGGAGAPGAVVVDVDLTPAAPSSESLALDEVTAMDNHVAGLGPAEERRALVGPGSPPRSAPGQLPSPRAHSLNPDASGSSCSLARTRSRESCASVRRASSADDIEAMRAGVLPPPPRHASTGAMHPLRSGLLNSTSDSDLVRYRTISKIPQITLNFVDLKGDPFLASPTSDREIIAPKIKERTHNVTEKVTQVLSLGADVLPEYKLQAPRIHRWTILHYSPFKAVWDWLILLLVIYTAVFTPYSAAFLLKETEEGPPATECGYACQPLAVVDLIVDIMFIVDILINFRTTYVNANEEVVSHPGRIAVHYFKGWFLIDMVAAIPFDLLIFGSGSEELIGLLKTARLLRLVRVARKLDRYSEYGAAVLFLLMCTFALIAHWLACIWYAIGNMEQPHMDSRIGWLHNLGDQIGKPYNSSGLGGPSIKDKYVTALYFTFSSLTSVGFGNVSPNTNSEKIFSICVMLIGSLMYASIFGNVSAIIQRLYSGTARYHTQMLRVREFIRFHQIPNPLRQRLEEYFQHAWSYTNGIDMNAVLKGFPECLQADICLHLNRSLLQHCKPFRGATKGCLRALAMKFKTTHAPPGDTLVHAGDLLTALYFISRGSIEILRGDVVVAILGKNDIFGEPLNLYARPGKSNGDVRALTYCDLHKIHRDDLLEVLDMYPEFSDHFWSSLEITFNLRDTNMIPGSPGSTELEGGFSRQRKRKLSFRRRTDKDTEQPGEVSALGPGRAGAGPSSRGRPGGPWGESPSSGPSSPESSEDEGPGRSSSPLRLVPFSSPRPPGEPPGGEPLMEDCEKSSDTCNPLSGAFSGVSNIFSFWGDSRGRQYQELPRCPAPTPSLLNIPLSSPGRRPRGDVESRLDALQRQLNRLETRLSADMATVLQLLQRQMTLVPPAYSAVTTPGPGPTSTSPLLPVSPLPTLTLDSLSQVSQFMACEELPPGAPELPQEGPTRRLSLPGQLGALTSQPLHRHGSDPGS
Turning to `CN(C)C=NC(=O)c1cc(C(=O)c2ccccc2)c[nH]1`, the “hERG current change (%, negative = inhibition) at 10uM” value amounted to 10.6%.
In the case of `C=CCNS(=O)(=O)c1ccc(C(=O)OCc2cc(=O)oc3cc(OC)ccc23)cc1`, the “hERG current change (%, negative = inhibition) at 10uM” value came out at 3.66%.
In the case of `CC(C)(C)SCCNC(=O)/C=C/c1cccc([N+](=O)[O-])c1`, the “hERG current change (%, negative = inhibition) at 10uM” value was -28.4%.
Take `CC(=O)Nc1nc2cc3c(cc2s1)OCCO3`: the “hERG current change (%, negative = inhibition) at 10uM” value was -6.79%.
As for `COc1ccc(C2NC(=O)NC(C)=C2C(=O)Nc2cc(C)ccc2C)cc1OC` (centres unmarked), the figure is 1.59%; as for `O=C1CCCN1C(=O)CCC(=O)N1CCCC1=O`, -29%; as for `COc1ccccc1NC(=O)c1cc(Cl)nc2ccccc12`, -1.87%.
With `COC(=O)c1cc(NC(=S)N2CCN(C(=O)C3CCCO3)CC2)cc(C(=O)OC)c1` (centres unmarked) the figure was -6.49%; with `CCc1ccc(NC2=NCC(=O)N2Cc2ccc3c(c2)OCO3)cc1`, -8.76%.
As for `Cc1onc(-c2ccccc2)c1C(=O)Nc1cccnc1`, the figure is -10.2%.
As to `COCCCNCC#CCOc1ccc(OC)cc1.O=C(O)C(=O)O`, the “hERG current change (%, negative = inhibition) at 10uM” value turned out to be 0.922%.
For `CCOc1ccc(/C(O)=C2/C(=O)C(=O)N(CCOCCO)C2c2ccccc2)cc1` (centres unmarked), the “hERG current change (%, negative = inhibition) at 10uM” value stood at 4.5%.
Take `O=C(NNC(=O)c1ccc([N+](=O)[O-])cc1)c1ccc(Br)cc1`: the “hERG current change (%, negative = inhibition) at 10uM” value is reported as 14.5%.
As for `CN(CC(=O)NC1(C)CCS(=O)(=O)C1)S(=O)(=O)c1ccc(Cl)cc1` (centres unmarked), the figure is 5.87%; as for `Cc1ccc(C)c(S(=O)(=O)N2CCN(C(=O)CSc3ccccc3)CC2)c1`, -28.8%; as for `Cc1ccc(S(=O)(=O)/N=C(\Nc2cc(C)on2)c2ccc(Cl)cc2)cc1`, -27.3%.
On to `COCCN(C(=O)CSc1nnc(-c2cccc(F)c2)n1N)c1c(N)n(CC(C)C)c(=O)[nH]c1=O`, for which the “hERG current change (%, negative = inhibition) at 10uM” value turned out to be 11.9%.
As for `COc1cc(Nc2cc(C)nc3nc(C)nn23)cc(OC)c1OC`, the “hERG current change (%, negative = inhibition) at 10uM” value is recorded as 2.57%.
As for `COCc1c(Br)c(C)[nH]c(=O)c1C#N`, the figure is -9.4%; as for `Cc1cc(C)cc(NC(=S)NC2CC3CCC(C2)N3Cc2ccco2)c1` (centres unmarked), -71.5%; as for `Cc1c(C(=O)N2CCC(Cc3ccccc3)CC2)sc2ncnc(N3CCC(C)CC3)c12`, 8.19%.
For `O=C1CCCc2c1cc(C(=O)NCCCN1CCOCC1)c(=O)n2-c1ccc(Cl)cc1`, the “hERG current change (%, negative = inhibition) at 10uM” value is 1.59%.
On to `COC(=O)[C@@]12CCCN1[C@H](c1ccc(-c3ccc(OC)cc3)c(OC)c1)[C@H]1C(=O)N(C)C(=O)[C@H]12.O=C(O)C(F)(F)F`, for which the “hERG current change (%, negative = inhibition) at 10uM” value is on record as -30.1%.

(Values after PMC4336329 (PLoS ONE, 2015).)
